In PubChem BioAssay AID1865 (National Center for Advancing Translational Sciences (NCATS), 2009):
In all, about 280,000 compounds went through this assay and about 540 (0.19%) were called active. This list was built around the results that the source calls inconclusive (neither active nor inactive); the mix of calls is not that of the screen. Calls follow the shape of the dose curve; as a rule, active = well fitted activation curve with a large enough effect; inconclusive = small, poorly fitted or top-dose-only effect; inactive = flat fitted curve, though single readings scatter. Where the call is inconclusive, the potency comes from a doubtful curve fit.

experiment: Quantitative High-Throughput Screen for Regulators of Epigenetic Control; conditions: murine LDR cells, GFP reporter derepression, 30 h; series mostly up to 53.9 µM; also: nearly all actives have a fitted effect of over 60% in size
Method in brief: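 Reporter derepression read as number of fluorescent GFP-positive objects, 20-120 um in size, counted by laser-scanning cytometer. Mouse LDR line with an epigenetically silenced CMV-GFP locus; compound incubation 30 h, 37 C.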
Potency is read from the fitted curve at half-maximal effect; tags tell the direction and shape of the fitted curve.

SMILES | Potency
O=C(Nc1ccc(C(=O)OCc2cc(=O)n3nc(C4CC4)sc3n2)cc1)c1cccc(F)c1 | inactive
CCN1/C(=C/c2ccc3cc(C)ccc3[n+]2CC)Sc2ccccc21 | inconclusive: 0.316 µM [activator, full curve]
CCC(CO)Nc1ccc(-c2nn(C)c(=O)c3ccccc23)cc1[N+](=O)[O-] (stereo not given) | inconclusive: 4.47 µM [activator, single point]
COc1ccc(C2=Nn3c(nnc3C3CCCCC3)SC2)cc1OC | inconclusive: 35.5 µM [activator, single point]
CC(=O)c1ccc(N2CCN(C(=O)CCc3nnc4n(C)c(=O)c5sccc5n34)CC2)cc1 | inconclusive: 20 µM [activator, single point]
Nc1nnnn1/N=C/C(Br)=C/c1ccccc1 | inconclusive: 5.01 µM [activator, single point]
COCCNC(=O)/C(C#N)=c1\s/c(=C\c2ccccc2OC(F)F)c(=O)n1Cc1ccccc1 | inconclusive: 5.62 µM [activator, single point]
CCNC(=O)c1cc2c(=O)n3cccc(C)c3nc2n(Cc2ccc(C)cc2)c1=N | inconclusive: 35.5 µM [activator, single point]
CCn1nc(-c2ccccc2)c(-c2ccccc2)c(C(=O)Nc2ccc(NC(C)=O)cc2)c1=O | inconclusive: 10 µM [activator, single point]
O=C1N/C(=C/c2ccc(N3CCOCC3)o2)C(=O)N1c1ccccc1 | inconclusive: 3.98 µM [activator, single point]
O=C(NNC(=S)Nc1ccc(Cl)c(Cl)c1)c1ccccn1 | inconclusive: 12.6 µM [activator, single point]
Cc1nc(N2CCN(Cc3ccccc3)CC2)[nH]c(=O)c1C | inconclusive: 0.158 µM [activator, full curve, poor fit]
COc1ccc(NC(=O)c2sc3nc(C(F)(F)F)cc(C)c3c2N)cc1OC | active: 14.1 µM
CO/N=C/C(C#N)c1ncc(C(F)(F)F)cc1Cl (stereo not given) | inactive
Cc1ccc(CNC(=O)C2CCCN(c3nc4ccsc4c(=O)s3)C2)cc1 (stereo not given) | inconclusive: 35.5 µM [activator, single point]
Cc1nc2ccccn2c1-c1csc(NCc2ccco2)n1 | inactive
Cc1ccc(S(=O)(=O)Nc2ccc3c(c2)nc(C)n3C)cc1 | inactive
CC1=CC(C)(C)Nc2ccc(OC(=O)c3cccnc3)cc21 | inconclusive: 11.2 µM [activator, partial curve]
COc1ccc(CCNc2nc3cc(OC)c(OC)cc3c3nc(-c4ccccc4)nn23)cc1OC | inconclusive: 22.4 µM [activator, single point]
CCOc1ccc(-c2nc(CSCC(=O)NCc3ccc(C)cc3)c(C)o2)cc1 | inactive
O=C(O)c1cccc(-n2cnc3cccnc32)c1 | inactive
COc1cc2c(cc1OC)C1(Nc3c-2c(C)nn3-c2ccccc2)C(=O)Nc2ccccc21 (stereo not given) | inconclusive: 35.5 µM [activator, single point]
O=C(c1ccc2c3c(cccc13)CC2)C1CCCN(Cc2ccc(OCCO)cc2)C1 (stereo not given) | inactive
CCN(C(=O)CSc1nc2ccccc2n1CCc1ccccc1)C1CCS(=O)(=O)C1 (stereo not given) | inactive

SMILES | Potency
COc1ccc(/C=C/C(=O)O)cc1S(=O)(=O)NCc1ccco1 | inactive
COc1cc2oc(=O)c(CC(=O)NCCc3ccccc3)c(C)c2cc1Cl | inconclusive: 35.5 µM [activator, single point]
CN1C(=O)C(O)(CC(=O)c2ccccc2O)c2cc(Br)ccc21 (stereo not given) | inactive
Cc1ccc(NC(=O)/C(C#N)=C\c2ccc(-c3ccc(Cl)cc3)o2)c(C)c1 | active: 3.55 µM
CN(c1ccccc1)S(=O)(=O)c1nnc(NC(=O)c2ccco2)s1 | inconclusive: 15.8 µM [activator, single point]
CN(C)c1ccc(/C=C2\C(=N)N3C(=NC2=O)Sc2cc(S(C)(=O)=O)ccc23)cc1 | inconclusive: 10 µM [activator, partial curve]
CCOc1ccc(-n2nc3c(SCCN4CCCC4)nnc(C)c3c2C)cc1 | inconclusive: 28.2 µM [activator, single point]
COc1ccccc1C(=O)Nc1cccc(OCc2cc(=O)n3c(C)csc3n2)c1 | inconclusive: 31.6 µM [activator, single point]
N#Cc1c(-c2ccccc2)cc(-c2ccco2)c(C#N)c1N | inconclusive: 35.5 µM [activator, single point]
Cc1ccc(/C=C(\C#N)C(=O)Nc2ccc(Br)cc2)o1 | active: 22.4 µM
O=C1NC(=S)S/C1=C\C=C\c1ccc([N+](=O)[O-])o1 | inconclusive: 5.62 µM [activator, single point]
COc1ccc2c(c1)C(C)=CC(C)(C)N2S(=O)(=O)c1ccc(Br)cc1 | inactive
C=CCNC(=S)/C(=C(\[O-])c1ccc(Cl)cc1)[n+]1ccccc1 | inactive
COc1ccccc1NC(=O)c1sc2nc3c(c(C(F)(F)F)c2c1N)CN(C(C)=O)CC3 | inconclusive: 31.6 µM [activator, single point]
CCOc1ccc(NC(=O)CSc2oc(-c3cccs3)nc2S(=O)(=O)c2ccc(C)cc2)cc1 | inconclusive: 31.6 µM [activator, single point]
NS(=O)(=O)c1ccc(NC(=O)COC(=O)C2CCCCC2)cc1 | inactive
COc1cccc(-n2c(SCC(=O)c3ccccc3)nc3c([nH]c4ccccc43)c2=O)c1 | inconclusive: 31.6 µM [activator, single point]
O=c1oc2cc(O)ccc2cc1-c1nc(-c2ccc(Cl)c(Cl)c2)cs1 | active: 7.94 µM
CCCCCCCCCCCCCCCC(O)C(N)CO (stereo not given) | inconclusive: 35.5 µM [activator, single point]
NS(=O)(=O)c1ccc(CNC(=O)c2cc(-c3ccccc3)nc3ccccc23)cc1 | inconclusive: 31.6 µM [activator, single point]
O=Cc1cn(-c2ccccc2)nc1-c1cc2c(ccc3ccccc32)oc1=O | inactive
COc1ccc(NC(=O)Nc2sc(=S)n(C)c2C)cc1 | inactive
CCc1ccc(C2=NN(S(C)(=O)=O)C(c3cccs3)C2)cc1 (stereo not given) | active: 17.8 µM
CCN(CC)CCN(C(=O)c1ccco1)c1nc2c(C)c(C)ccc2s1 | inactive

SMILES | Potency
Cc1cccc(NC(=O)c2nc[nH]c2C(=O)N[C@@H](CC(C)C)C(=O)OC(C)(C)C)c1 | inconclusive: 35.5 µM [activator, single point]
CC(C)Oc1ccc(CCc2nnc(SC(C)C(=O)O)n2-c2ccccc2)cc1 (stereo not given) | inconclusive: 35.5 µM [activator, single point]
CC#CCN1c2ccccc2[C@]23C[C@@H](C(=O)OC)N(C(=O)c4cc(C)oc4C)C2=NC(C(=O)OC)=C(C(=O)OC)[C@H]13 | inactive
O=[N+]([O-])c1ccc(/C=C/C2=NN(c3ccccc3)C(c3ccco3)C2)cc1 (stereo not given) | active: 0.794 µM
Cc1c(=O)n(OCc2ccccc2)c2ccccc2[n+]1[O-] | inconclusive: 31.6 µM [activator, single point]
Cc1ccc(S(=O)(=O)N/N=C\c2ccc([N+](=O)[O-])o2)cc1 | inconclusive: 35.5 µM [activator, single point]
CCN(CC)S(=O)(=O)c1cccc(C(=O)NC(C(=O)Nc2nnc(C)s2)C(C)C)c1 (stereo not given) | inconclusive: 17.8 µM [activator, single point]
O=S(=O)(Cc1cc(Cl)nc(-c2ccncc2)n1)c1ccccc1 | inconclusive: 28.2 µM [activator, single point]
CCc1ccc(CNC(=O)Cn2ccc3cc(S(=O)(=O)N4CCCCCC4)ccc32)cc1 | inconclusive: 2.82 µM [activator, single point]
Cc1ccc(/C=N/N2C(=S)SC(C)(C)C2N(O)C(=O)Nc2ccc([N+](=O)[O-])cc2)cc1 (stereo not given) | inconclusive: 35.5 µM [activator, single point]
COc1ccc2c(c1)c1ccc3c(c1n2C)C(=O)C=CC3=O | inconclusive: 2 µM [activator, partial curve]
N#CC(Cc1ccc(O)c(O)c1)C(=O)N1CCc2ccccc21 (stereo not given) | inactive
O=C(Nc1ccccc1)N1CCCC(c2nc(-c3ccc(F)cc3)no2)C1 (stereo not given) | inactive
CCOC(=O)c1cc2c(=O)n3ccccc3nc2n(Cc2ccco2)c1=NC(=O)c1ccc(Br)cc1 | inconclusive: 3.98 µM [activator, full curve]
COCCCNC1=C(Cl)C(=O)c2ccccc2C1=O | inactive
CC1(C)Cc2c(ccc3ccccc23)/C(=C/C(=O)N2CCCCC2)N1 | inconclusive: 35.5 µM [activator, single point]
CC(C)OC(=O)/C(C#N)=C/c1ccc(-c2ccc(SC(F)F)cc2)o1 | inconclusive: 31.6 µM [activator, single point]
COc1ccc(NC(=O)C2CCN(S(=O)(=O)c3cn(C)cn3)CC2)cc1Cl | inactive
CCN1C/C(=C/c2ccc(OC)c(O)c2)C(=O)/C(=C/c2ccc(OC)c(O)c2)C1 | inconclusive: 5.62 µM [activator, single point]
CCOC(=O)CCSc1nc(C)cc(C(F)(F)F)c1C#N | inconclusive: 31.6 µM [activator, single point]
CCCCn1c(=O)c2oc3ccccc3c2n(Cc2ccc(OC)cc2)c1=O | inconclusive: 12.6 µM [activator, single point]
O=C(COC(=O)c1ccco1)Nc1nc2ccc([N+](=O)[O-])cc2s1 | inactive
